Test results published in patent publication US20250270341A1 (Alector, published 2025).

T1: Full length mouse CD98hc on CHO cells (mouse, UniProt P10852 1-526)
T1 construct: CHO cells stably overexpressing it; also called CHO-mouse CD98hc; CHO-mCD98hc
T1 sequence: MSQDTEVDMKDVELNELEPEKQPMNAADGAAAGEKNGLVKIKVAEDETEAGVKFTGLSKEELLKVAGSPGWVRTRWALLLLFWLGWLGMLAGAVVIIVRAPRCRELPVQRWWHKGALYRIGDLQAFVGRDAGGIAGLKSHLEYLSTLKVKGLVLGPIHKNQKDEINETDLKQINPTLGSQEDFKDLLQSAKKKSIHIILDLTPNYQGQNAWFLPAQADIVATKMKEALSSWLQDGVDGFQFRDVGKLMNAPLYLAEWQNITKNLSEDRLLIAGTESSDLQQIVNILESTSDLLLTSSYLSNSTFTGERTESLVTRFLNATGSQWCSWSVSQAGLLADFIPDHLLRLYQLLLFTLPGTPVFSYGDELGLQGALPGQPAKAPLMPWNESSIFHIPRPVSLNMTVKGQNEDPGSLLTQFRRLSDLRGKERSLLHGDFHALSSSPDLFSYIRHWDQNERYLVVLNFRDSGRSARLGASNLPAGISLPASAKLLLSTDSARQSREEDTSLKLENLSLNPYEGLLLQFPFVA

T2: Full length human CD98hc on CHO cells (human)
T2 construct: CHO cells stably overexpressing it; also called CHO-human CD98hc; CHO-huCD98hc
T2 chain: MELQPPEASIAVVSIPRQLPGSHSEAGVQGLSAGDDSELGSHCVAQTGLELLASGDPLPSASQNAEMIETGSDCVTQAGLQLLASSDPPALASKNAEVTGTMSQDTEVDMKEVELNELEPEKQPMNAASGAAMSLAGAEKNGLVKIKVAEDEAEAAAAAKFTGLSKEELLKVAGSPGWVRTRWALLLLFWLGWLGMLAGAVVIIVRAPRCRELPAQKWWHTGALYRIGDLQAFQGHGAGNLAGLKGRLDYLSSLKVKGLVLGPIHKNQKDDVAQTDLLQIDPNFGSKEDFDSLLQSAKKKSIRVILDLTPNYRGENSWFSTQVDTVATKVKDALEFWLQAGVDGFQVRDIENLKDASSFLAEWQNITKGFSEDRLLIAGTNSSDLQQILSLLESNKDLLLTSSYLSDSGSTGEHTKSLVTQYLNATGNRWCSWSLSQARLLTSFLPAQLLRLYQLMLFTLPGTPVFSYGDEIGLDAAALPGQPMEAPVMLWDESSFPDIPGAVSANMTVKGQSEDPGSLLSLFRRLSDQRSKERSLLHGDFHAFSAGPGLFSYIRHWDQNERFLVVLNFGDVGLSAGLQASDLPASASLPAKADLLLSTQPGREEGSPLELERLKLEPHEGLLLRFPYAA

T3: human CD98hc endogenously expressed on HCMEC/D3 cells (human)
T3 construct: human brain endothelial cell line
T3 chain: T2 chain

B1: CD98hc.03.002 (2+1 bispecific antibody) (bispecific antibody)
heavy 1: EVRLLESGGGLVQPGGSLRLSCAASGFTFSNYAMGWVRQAPGKGLEWVSAISGSGGSTYYADSVKGRFTTSRDDSKNALYLQMNSLRAEDTAVYYCARGGPGWYAADVWGQGTTVTVSSASTKGPSVFPLAPSSKSTSGGTAALGCLVKDYFPEPVTVSWNSGALTSGVHTFPAVLQSSGLYSLSSVVTVPSSSLGTQTYICNVNHKPSNTKVDKKV[here human IgG1 Fc with changes without letters]GGGGSGGGGSGGGGSDVQLVESGGGLVQPGGSRKLSCAASGFTFSTFGMHWVRQAPEKGLEWVAYISGGSTNIYYADTVKGRFTISRDNPKNTLFLQMTSLRSEDTAMYYCARETTLLATNFDYWGQGTTLTVSSGGSEGKSSGSGSESKSTGGSDIQMTQTTSSLSASLGDRVTISCRASQDISNYLNWYQQKPDGTVKLLIYYTSRLHSGVPSRFSGSGSGTDYSLTISNLEQEDIATYFCQQGSTLPRTFGGGTKLEIK
heavy 2: EVRLLESGGGLVQPGGSLRLSCAASGFTFSNYAMGWVRQAPGKGLEWVSAISGSGGSTYYADSVKGRFTTSRDDSKNALYLQMNSLRAEDTAVYYCARGGPGWYAADVWGQGTTVTVSS[here human IgG1 constant region with changes without letters]
light: DIQMTQSPSSLSASVGDRVTITCRASQSISSYLNWYQQKPGKAPKLLIYAASSLQSGVPSRFSGSGSGTDFTLTISSLQPEDFATYYCQQADLPAFAFGGGTKVEIKRTVAAPSVFIFPPSDEQLKSGTASVVCLLNNFYPREAKVQWKVDNALQSGNSQESVTEQDSKDSTYSLSSTLTLSKADYEKHKVYACEVTHQGLSSPVTKSFNRGEC
B2: CD98hc.03.004 (2+1 bispecific antibody) (bispecific antibody)
heavy 1: EVRLLESGGGLVQPGGSLRLSCAASGFTFSNYAMGWVRQAPGKGLEWVSAISGSGGSTYYADSVKGRFTTSRDDSKNALYLQMNSLRAEDTAVYYCARGGPGWYAADVWGQGTTVTVSSASTKGPSVFPLAPSSKSTSGGTAALGCLVKDYFPEPVTVSWNSGALTSGVHTFPAVLQSSGLYSLSSVVTVPSSSLGTQTYICNVNHKPSNTKVDKKV[here human IgG1 Fc with changes without letters]GGGGSGGGGSGGGGSDVQLQESGPGLVKPSQSLSLTCTVTGYSITNNYAWNWIRRFPGNKLEWMAYISYSGYTSYNPSLKSRISITRDTSKNQFFLQLNSVTTEDTATYYCTGYFYYYGGGSFDYWGQGTTLTVSSGGSEGKSSGSGSESKSTGGSQAVVTQESALTTSPGETVTLTCRSSTGAVTTSNFANWVQEKPDHLFTGLIRGSNNRAPGVPARFSGSLIGDKAALTITGARTEDEAIYFCALWYSDHWVFGGGTKLTVL
heavy 2: EVRLLESGGGLVQPGGSLRLSCAASGFTFSNYAMGWVRQAPGKGLEWVSAISGSGGSTYYADSVKGRFTTSRDDSKNALYLQMNSLRAEDTAVYYCARGGPGWYAADVWGQGTTVTVSS[here human IgG1 constant region with changes without letters]
light: B1 light
B3: CD98hc.03.010 (2+1 bispecific antibody) (bispecific antibody)
heavy 1: EVRLLESGGGLVQPGGSLRLSCAASGFTFSNYAMGWVRQAPGKGLEWVSAISGSGGSTYYADSVKGRFTTSRDDSKNALYLQMNSLRAEDTAVYYCARGGPGWYAADVWGQGTTVTVSSASTKGPSVFPLAPSSKSTSGGTAALGCLVKDYFPEPVTVSWNSGALTSGVHTFPAVLQSSGLYSLSSVVTVPSSSLGTQTYICNVNHKPSNTKVDKKV[here human IgG1 Fc with changes without letters]GGGGSGGGGSGGGGSEVQLQQSGTELVKPGASVKLSCTASGLDIKDTYLHWVKQRPEQGLEWIGKIDPANGNTKYNPKFQGKATITADTSSNTAYLQLSSLTSEDTAVHYCTTPYYSGSSYGDYWGQGTTLTVSSGGSEGKSSGSGSESKSTGGSQIVLTQSPAIMSASPGEKVTLTCSASSSVSSSYLYWYQQKPGSSPKLWIYSTSNLASGVPARFSGSGSGTSYSLTISSMEAEDAASYFCHQWSRYPLTFGAGTKLELK
heavy 2: EVRLLESGGGLVQPGGSLRLSCAASGFTFSNYAMGWVRQAPGKGLEWVSAISGSGGSTYYADSVKGRFTTSRDDSKNALYLQMNSLRAEDTAVYYCARGGPGWYAADVWGQGTTVTVSS[here human IgG1 constant region with changes without letters]
light: B1 light
B4: CD98hc.03.031 (2+1 bispecific antibody) (bispecific antibody)
heavy 1: EVRLLESGGGLVQPGGSLRLSCAASGFTFSNYAMGWVRQAPGKGLEWVSAISGSGGSTYYADSVKGRFTTSRDDSKNALYLQMNSLRAEDTAVYYCARGGPGWYAADVWGQGTTVTVSSASTKGPSVFPLAPSSKSTSGGTAALGCLVKDYFPEPVTVSWNSGALTSGVHTFPAVLQSSGLYSLSSVVTVPSSSLGTQTYICNVNHKPSNTKVDKKV[here human IgG1 Fc with changes without letters]GGGGSGGGGSGGGGSQVQLQQSGAELVRPGVSVKISCKASGYTFTDYAMHWVKQSHAKSLEWIGVISTYYGDTTYNQKFKDKATMTVDKSSSTAYLELARLTSEDSAIYYCARVWLLSYAMDNWGQGTSVTVSSGGSEGKSSGSGSESKSTGGSDIVMTQSQRFMSTSVGDGVRITCKASQNVRTAVAWYQQKPGQSPKALINLAPNRHTGVPDRFTARGSGTDFTLTISNVQSEDLADYFCLQHWNYPLTFGAGTKLELK
heavy 2: EVRLLESGGGLVQPGGSLRLSCAASGFTFSNYAMGWVRQAPGKGLEWVSAISGSGGSTYYADSVKGRFTTSRDDSKNALYLQMNSLRAEDTAVYYCARGGPGWYAADVWGQGTTVTVSS[here human IgG1 constant region with changes without letters]
light: B1 light
B5: CD98hc.04.003 (2+1 bispecific antibody) (bispecific antibody)
heavy 1: EVRLLESGGGLVQPGGSLRLSCAASGFTFSNYAMGWVRQAPGKGLEWVSAISGSGGSTYYADSVKGRFTTSRDDSKNALYLQMNSLRAEDTAVYYCARGGPGWYAADVWGQGTTVTVSSASTKGPSVFPLAPSSKSTSGGTAALGCLVKDYFPEPVTVSWNSGALTSGVHTFPAVLQSSGLYSLSSVVTVPSSSLGTQTYICNVNHKPSNTKVDKKV[here human IgG1 Fc with changes without letters]GGGGSGGGGSGGGGSQVQLQQSGAELAKPGASLKMSCKASGYTFTDYYIHWVKQRPGQDLEWIGYINPNSAYTDSNQKFKDKATLTADKSSNTAYMQLSSLTSEDSAVYYCARKGHFYAPSFAYWGQGTLVTVSAGGSEGKSSGSGSESKSTGGSDIQMTQTTSSLSASLGDRVTISCRASQDISNYLNWYQQKPDGTVKLLIYYTSRLHSGVPSRFSGSGSGADYSLTISNLQQEDIATYFCQQGDTLPYTFGGGTKLEIE
heavy 2: EVRLLESGGGLVQPGGSLRLSCAASGFTFSNYAMGWVRQAPGKGLEWVSAISGSGGSTYYADSVKGRFTTSRDDSKNALYLQMNSLRAEDTAVYYCARGGPGWYAADVWGQGTTVTVSS[here human IgG1 constant region with changes without letters]
light: B1 light
B6: CD98hc.04.058 (2+1 bispecific antibody) (bispecific antibody)
heavy 1: EVRLLESGGGLVQPGGSLRLSCAASGFTFSNYAMGWVRQAPGKGLEWVSAISGSGGSTYYADSVKGRFTTSRDDSKNALYLQMNSLRAEDTAVYYCARGGPGWYAADVWGQGTTVTVSSASTKGPSVFPLAPSSKSTSGGTAALGCLVKDYFPEPVTVSWNSGALTSGVHTFPAVLQSSGLYSLSSVVTVPSSSLGTQTYICNVNHKPSNTKVDKKV[here human IgG1 Fc with changes without letters]GGGGSGGGGSGGGGSQVQLQQSGAELVRPGVSVKISCKASGYTFTDHTMHWVKQSHARSLEWIGVISTYFGDASYNPKFKGKATMTVDKSSNTAYMELARLTSEDSAIYYCARVGGRLRLGYYFDYWGQGTTLTVSSGGSEGKSSGSGSESKSTGGSNIMMTQSPSSLAVSAGEKVTMNCKSSQTVLYSSNQKNYLAWYQQKPGQSPKLLIYWASTRESGVPDRFTGSGSGTDFTLTISSVQVEDLAVYYCHQYLSSYTFGGGTKLEIK
heavy 2: EVRLLESGGGLVQPGGSLRLSCAASGFTFSNYAMGWVRQAPGKGLEWVSAISGSGGSTYYADSVKGRFTTSRDDSKNALYLQMNSLRAEDTAVYYCARGGPGWYAADVWGQGTTVTVSS[here human IgG1 constant region with changes without letters]
light: B1 light

Biological target: T1, Full length mouse CD98hc on CHO cells
Experiment: FACS, 5 ug/ml
Procedure: (§1) To determine binding retention of 2+1 anti-CD98hc bispecific antibodies by FACS, antibodies were evaluated for binding to HCMEC/D3 cells (a cell line derived from human brain endothelial cells), overexpressing human and mouse CD98hc CHO cell lines, and parental CHO cells for non-specific binding. Cells were seeded in tissue culture plates (50,000 cells/well) and washed and resuspended in FACS buffer (PBS+2% BSA+1 mM EDTA). The 2+1 anti-CD98hc bispecific antibodies were then incubated with cells (5 μg/ml, 1 hr, on ice) and washed twice with FACS buffer. Cells were then incubated with allophycocyanin conjugated anti-mouse secondary antibody (Jackson Immunoresearch) (1:1000, 30 min, on ice) and then washed twice with FACS buffer. Next, cells were resuspended in FACS buffer supplemented with 0.5% propidium iodide (Thermo Fisher). Anti-CD98hc binding was then analyzed on the iQue flow cytometer (IntelliCyt) by measuring the Mean Fluorescent Intensity (MFI). FACS data are summarized below in Table 17, shown as MFI fold-change relative to isotype hIgG1 control.

| Binder | MFI fold-change relative to isotype hIgG1 |
| --- | --- |
| B1 | 0.6 |
| B2 | 1 |
| B3 | 1.2 |
| B4 | 1.4 |
| B5 | 0.5 |

Biological target: T2, Full length human CD98hc on CHO cells
Experiment: FACS, 5 ug/ml
Procedure: as §1

| Binder | MFI fold-change relative to isotype hIgG1 |
| --- | --- |
| B1 | 4.7 |
| B2 | 43.7 |
| B3 | 2.8 |
| B4 | 17.6 |
| B5 | 3 |
| B6 | 11.8 |

Biological target: T3, human CD98hc endogenously expressed on …
Experiment: FACS, 5 ug/ml
Procedure: as §1

| Binder | MFI fold-change relative to isotype hIgG1 |
| --- | --- |
| B1 | 14.5 |
| B2 | 128 |
| B3 | 6.9 |
| B4 | 59.2 |
| B5 | 5.3 |
| B6 | 26.3 |
